The other results are listed elsewhere or left out.

In this assay the test system is PfHDP1 homeodomain (GST-tagged). The assay is described as follows: gcPBM binding intensity (ln(normalized median fluorescence intensity)); higher = stronger DNA binding. The method in brief:
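Probes on an Agilent 4 × 180k array were primer-extended, double-stranded and 36 bp long, taken from intergenic genomic regions, with negative controls added. GST-tagged P. falciparum DNA-binding domains from E. coli, about 25 μg on average, were applied to the array for 1 h in 1× PBS containing 1% milk, 0.2 mg/ml BSA, 0.5% salmon testes DNA and 0.03% Triton X-100. Binding intensity, obtained after Alexa488 anti-GST antibody detection and a 488 nm scan, is the highest Masliner-normalised natural-log median intensity across replicate spots of either probe orientation.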
For the sequence “ATACATACATATATATGTACTTATATTTTACACATT [XGTACX_site1688]”, the “gcPBM binding intensity (ln)” value was determined as 6.88.

For the sequence “TATTTATAAGTTTACGCATGCATATAATTATTAATA [TGCATGCA_site311]”, the “gcPBM binding intensity (ln)” value came to 6.23.

As for “TTTTTTTTTTTTTTTGTGCACAATTATTTCAATTTT [GTGCAC_site9884]”, the “gcPBM binding intensity (ln)” value came to 10.2.

Turning to “TAATATTTATAATAGTGTACACAATTATAAACTGAA [XGTACX_site8426]”, the “gcPBM binding intensity (ln)” value turned out to be 6.8.

With “ACCTTATTTATTATTGCATGTGACCATCAGATGGTA [TGCATGCA_site288]”, the “gcPBM binding intensity (ln)” value amounted to 7.79.

For the sequence TTTATTTTTTACCAAGTGCAATATATTATAATAATA, the “gcPBM binding intensity (ln)” value was 8.63.

Turning to “TGTATGTTATGTATATGTACATATCTTTGTATTTAT [XGTACX_site6920]”, the “gcPBM binding intensity (ln)” value was 6.6.

In the case of “AAATAAATTAAAATAAATTAAATTAAATTAGCATTA [GTGCAC_negctrl_site531]”, the “gcPBM binding intensity (ln)” value is 5.8.

Regarding “TTTTAAATAATTCGTAATTATAATTATGGAAAAAAG [CACACA_negctrl_site152]”, the “gcPBM binding intensity (ln)” value amounted to 6.62.

For the sequence “TATCCATGCATTTACACACACACAAAAAAAAATTCT [CACACA_site4100]”, the “gcPBM binding intensity (ln)” value amounted to 7.12.

Take “ATTTTTTTTTTTAATACACACAATTTTGATGAAGCA [CACACA_site3157]”: the “gcPBM binding intensity (ln)” value worked out at 6.75.

Regarding “ACATTACCATATAAAACACACAAACATACATACATA [CACACA_site7709]”, the “gcPBM binding intensity (ln)” value worked out at 6.81.

On to “TATAATATTTGGTGCACACAAATTAACAACTGTTTA [CACACA_site3742]”, for which the “gcPBM binding intensity (ln)” value was 10.8.

As for “TTTCATAAGAGAAAGACACACAAATATATATTTATT [CACACA_site827]”, the “gcPBM binding intensity (ln)” value was 6.31.

For “AAAGAAAAAAAATAATGTACTTATGTATTTCAGAAA [XGTACX_site3570]”, the “gcPBM binding intensity (ln)” value worked out at 6.03.

In the case of “ATATATATGCATAATACACACATCATATAATTAACC [CACACA_site1643]”, the “gcPBM binding intensity (ln)” value turned out to be 7.27.

Regarding “TTCATACATAGAAAATGTACATATATATATATATAT [XGTACX_site1895]”, the “gcPBM binding intensity (ln)” value is 9.3.

With “AAGATATGTACTAATACACACACATATATATATATA [CACACA_site8249]”, the “gcPBM binding intensity (ln)” value is 9.28.

With “AAAAAAAAAAACAATACATGCATAATATTAATAAAA [TGCATGCA_site913]”, the “gcPBM binding intensity (ln)” value was 6.47.

In the case of “TACAAAATATTTTACACACACATATAAATACAGATA [CACACA_site5447]”, the “gcPBM binding intensity (ln)” value is 6.82.

Regarding “ATACAAATAAAAAAAAAAATTATAAAATTATAAAAT [CACACA_negctrl_site914]”, the “gcPBM binding intensity (ln)” value was 6.09.

For “AGTGATAATTTAAAAAGTACAAATGAAATTTAGCTA [XGTACX_site3375]”, the “gcPBM binding intensity (ln)” value was found to be 6.22.

Turning to “TATATATAAAGCAGTACACACATTTATTTTAGATAC [CACACA_site3387]”, the “gcPBM binding intensity (ln)” value was found to be 6.48.

Consider “AGAGAGAAAGCTATAACATGCAAAAATTTTTAGAAC [TGCATGCA_site420]”, for which the “gcPBM binding intensity (ln)” value was 7.01.

On to “CATATATATATATATTGTACACATTTTTTATAAAAA [XGTACX_site2526]”, for which the “gcPBM binding intensity (ln)” value was 6.96.

Regarding “TATTTGCAATATAACACACACAAAAAAAGACTCGGA [CACACA_site6891]”, the “gcPBM binding intensity (ln)” value came to 9.04.

With “AATTATACATTATATTGTACATATGAATAATTAAAA [XGTACX_site6829]”, the “gcPBM binding intensity (ln)” value is 6.22.

As for “TATATGTAATATATATGTACGTATAATATAATATTG [XGTACX_site8620]”, the “gcPBM binding intensity (ln)” value was determined as 6.45.

In the case of “TATATAATACAAAAGGGTACATTAACATATTATATA [XGTACX_site3196]”, the “gcPBM binding intensity (ln)” value was determined as 6.74.

With “CTATTATCGGTTCCTACACACAAATATAGATGTCTA [CACACA_site7651]”, the “gcPBM binding intensity (ln)” value came out at 6.73.

For the sequence “TTTGTAACTTCTTTCACACATATATATATATATATA [CACACA_site5603]”, the “gcPBM binding intensity (ln)” value was 9.41.

On to “GTGTGCAAAAATTGTTGTACATTATATATAAAAAAA [XGTACX_site3246]”, for which the “gcPBM binding intensity (ln)” value was determined as 10.6.

As for “TTTCACATATATATGGTGCATATTTTATGTGTAAAT [GTGCAC_site9937]”, the “gcPBM binding intensity (ln)” value amounted to 9.91.

Turning to “ACCTCACAAATGAATACACACAAACATATATATTTA [CACACA_site4976]”, the “gcPBM binding intensity (ln)” value turned out to be 7.1.

“AATATCATCCTTTTTTTTTATAAAATTTAAAATATA [CACACA_negctrl_site844]”: the “gcPBM binding intensity (ln)” value came to 6.51.

“ATTTTATGTTGAAAGTGTACGTATTAATATGTAGAA [XGTACX_site245]”: the “gcPBM binding intensity (ln)” value came out at 6.6.

In the case of “TATAAGAGAATATATACACACAAAAATAAATACAGT [CACACA_site5000]”, the “gcPBM binding intensity (ln)” value was found to be 7.2.

Regarding “TATTTTATTATACCAAGTACAAAATTTAAATATGAA [XGTACX_site5478]”, the “gcPBM binding intensity (ln)” value is 6.32.

Consider “AACAAAAAAAAAAAATGTACATATATATAATATATT [XGTACX_site3829]”, for which the “gcPBM binding intensity (ln)” value turned out to be 6.

As to “CCACAAGCAGCGGAAACATGCATATGTTGAAATAAT [TGCATGCA_site610]”, the “gcPBM binding intensity (ln)” value was 6.13.

As for “TCATTTCACAAACACACACACACAATATATTTCCTT [CACACA_site3905]”, the “gcPBM binding intensity (ln)” value was 7.12.

Turning to “TATATATATATATATTGTACCCTTTTCAAACTTCTC [XGTACX_site2812]”, the “gcPBM binding intensity (ln)” value worked out at 9.24.

As to “TAATAATATTATTAATGTACAAATATATATACATAT [XGTACX_site7348]”, the “gcPBM binding intensity (ln)” value came to 6.38.

For “GTTAAGAATATGTGTACACATATACATAAATACATA [CACACA_site4254]”, the “gcPBM binding intensity (ln)” value was determined as 7.12.

In the case of “AATAGCTAGCTGTGCACACAAACATATTTTCCAAAT [CACACA_site880]”, the “gcPBM binding intensity (ln)” value is 10.3.

On to “AACAACTATTAATTTACACACATGTATATATTTTAC [CACACA_site3116]”, for which the “gcPBM binding intensity (ln)” value is 6.82.

As to “GGATGGAGTAGTTAAGCATAATAAATAAAATTATGT [CACACA_negctrl_site578]”, the “gcPBM binding intensity (ln)” value worked out at 6.4.

In the case of “GTTTTAAACAAAAATTGTACAATATAATCTTCCTAT [XGTACX_site2851]”, the “gcPBM binding intensity (ln)” value stood at 6.43.

As for “ATATATATATAATTTTGTACATAATAGCAATTCTAA [XGTACX_site653]”, the “gcPBM binding intensity (ln)” value turned out to be 8.32.

As to “CAAAACCTTTTATGTACACACATATACATCCCACTT [CACACA_site5716]”, the “gcPBM binding intensity (ln)” value stood at 6.88.

As for “AAAAAAATTGGGAAAAGTACTTGCAGCTAGCTAAAA [XGTACX_site5178]”, the “gcPBM binding intensity (ln)” value stood at 6.71.

With “TTAAAAAAAATTTCAAGTACAAAGTAATATATATAT [XGTACX_site5718]”, the “gcPBM binding intensity (ln)” value came to 8.34.

On to “AAACAAATATAATATTGTACATATATATATATATAT [XGTACX_site3105]”, for which the “gcPBM binding intensity (ln)” value was 9.41.

“CAGACGCACGTATTTGCACACATTGCCACGTAATTA [CACACA_site3349]”: the “gcPBM binding intensity (ln)” value came out at 10.2.

Turning to “AACCATTCAACTGATGCATGCATTTAACATATAAAT [TGCATGCA_site961]”, the “gcPBM binding intensity (ln)” value was 6.69.

As to “GGATTGATAAGTGGTACACACATATATATTATATAT [CACACA_site2866]”, the “gcPBM binding intensity (ln)” value turned out to be 6.59.

Take “AAATATAAAAATAGCACACATATATACCTATATATA [CACACA_site4204]”: the “gcPBM binding intensity (ln)” value amounted to 7.26.
